# In PubChem BioAssay AID463173 (ICCB-Longwood Screening Facility, Harvard Medical School, 2010):
# Among all 52,000 compounds or so, about 4,300 (8.3%) were called active. No stated cut-off is given here; in the data, active means survival mostly below about 52% (no sharp cut-off); inactive means mostly above about 56%. The list shows a part of the results.
# Tested on: DeltatarO mutant
# Assay: S. aureus survival, RN4220 and DeltatarO strains – OD600, teichoic acid synthesis inhibitors, primary screen (AID 463173)
# Details: S. aureus RN4220 wild type/DeltatarO growth, OD600, 18 h, active compounds read low, screened at 18.75 µg/mL (by protocol)
row,Structure (SMILES),survival
1,CCOc1ccc(CCNC(=O)C(C)n2nc(C)n3c(cc4occc43)c2=O)cc1OCC (stereo not drawn),inactive: 74%
2,Cc1ccc(Cl)cc1N1CCN(C(=O)c2cn(C)c3ccc(S(=O)(=O)N(C)C4CCCCC4)cc3c2=O)CC1,inactive: 107%
3,Cc1ccc(NC(=O)Cn2c(=O)n(CCC(=O)NCCc3ccccc3)c(=O)c3ccccc32)cc1,inactive: 94%
4,O=C(Cn1cnc(S(=O)(=O)N2CCCC2)c1)Nc1ccccc1,inactive: 113%
5,CC(=O)Nc1ccc(NC(=O)C(Cc2ccccc2)N2Cc3ccccc3C2=O)cc1 (stereo not drawn),inactive: 82%
6,Cc1cccc(N2CCN(C(=O)c3c(C)oc4nc(C)nc(N5CCCC5)c34)CC2C)c1 (stereo not drawn),inactive: 95%
7,COc1cccc(-n2c(SCC(=O)N3CCCCC3)nc3c([nH]c4ccccc43)c2=O)c1,active: 20%
8,CN(C)S(=O)(=O)c1ccc2c(c1)N(CC(=O)N1CCCCC1)CCS2,inactive: 72%
9,Cc1ccc(-c2nnc(Nc3ccc(Cl)cc3)c3ccccc23)cc1S(=O)(=O)N1CCOCC1,inactive: 67%
10,Cn1cc(S(=O)(=O)c2ccccc2)c(=O)c2cc(F)c(N3CCN(c4ccc(F)cc4)CC3)cc21,inactive: 105%
11,O=C(Nc1c(C(=O)N2CCC(N3CCCCC3)CC2)oc2ccccc12)c1c(F)cccc1F,inactive: 78%
12,Cc1cc(C)c2c(-n3cccc3)c(C(=O)NCCCN3CCCCC3)sc2n1,inactive: 95%
13,CCN1CCN(Cc2nc3cc(NC(=O)c4ccccc4[N+](=O)[O-])ccc3n2CC)CC1,inactive: 78%
14,Cc1ccc(C)c(NC(=O)C2CCN(c3nn4c(=O)cc(C)nc4s3)CC2)c1,inactive: 106%
15,COc1ccc(NC(=O)c2ccc3c(c2)c(C)c(C)n3Cc2ccc(F)cc2)cc1,inactive: 84%
16,O=C(CCc1ccccc1)NCCc1csc(-c2cccc(F)c2)n1,inactive: 81%
17,Cc1ccc(C)c(CN2C(=O)c3ccccc3Sc3ccc(C(=O)NCc4cccs4)cc32)c1,inactive: 87%
18,CC1CCC(N2CC(=O)N(C3CCCC3)C(c3ccc(Cl)cc3)C2=O)CC1 (stereo not drawn),inactive: 79%
19,CC(=O)c1cccc(NC(=O)c2noc3c2CSc2ccccc2-3)c1,inactive: 66%
20,COc1ccccc1-c1cc(NC(=O)COc2ccccc2Cl)n(-c2ccccc2)n1,inactive: 77%
21,Cc1ccc(-c2[nH]c3ccccc3c2SCCNC(=O)c2ccc(S(=O)(=O)N3CCOCC3)cc2)cc1,inactive: 67%
22,Cc1ccccc1OCCSc1nc(C)c(Cc2ccccc2)c(=O)[nH]1,inactive: 97%

row,Structure (SMILES),survival
1,O=C(C1CCCN(S(=O)(=O)c2ccccc2)C1)N1CCCc2ccccc21 (stereo not drawn),inactive: 91%
2,COc1ccc(-c2nn(C)c3sc(C(=O)N4CCN(c5ccccc5F)CC4)cc23)cc1OC,inactive: 95%
3,CC(=O)Nc1cc(C)ccc1C,inactive: 88%
4,COc1cccc(CNC(=O)C(C)n2ccc3cc(S(=O)(=O)N4CCCCCC4)ccc32)c1 (stereo not drawn),inactive: 102%
5,CCn1c2c(c(=O)n3ncc(C(=O)Nc4cccc(Cl)c4C)c13)CN(Cc1ccc(OC)cc1)CC2,inactive: 68%
6,COc1ccc(CNC(=O)C2CCN(c3nc4ccc(C)cc4[nH]3)CC2)cc1,inactive: 94%
7,CCOC(=O)c1c(C)[nH]c(C)c1S(=O)(=O)N1CCC(C(=O)NCc2ccc(C)cc2)CC1,inactive: 72%
8,CCN1C(=O)CC(n2c(C)nc3ccccc32)C1=O (stereo not drawn),inactive: 96%
9,O=c1c2c([nH]n1-c1ccccc1)CCCC2,inactive: 101%
10,C=C(C)CSc1nc2sc3c(c2c(=O)n1CCCC)CCCC3,active: -3%
11,Cc1cc(C)cc(NC(=O)CSc2nncn3c2cc2occc23)c1,active: 46%
12,O=C(O)Cn1ccnc1,inactive: 86%
13,COc1ccc(S(=O)(=O)c2cn(Cc3ccccc3)c3cc(N4CCCC4)c(F)cc3c2=O)cc1,inactive: 91%
14,CCCOc1cccc(C(=O)Nc2ccc(-c3nc4ccccc4s3)c(Cl)c2)c1,inactive: 58%
15,COc1ccc(CCNC(=O)CCCCn2c(=O)c3ccccc3n(CC(=O)Nc3ccccc3C)c2=O)cc1OC,inactive: 111%
16,Cc1ccc(S(=O)(=O)N(C#N)c2nc(C)cc(C)n2)cc1,inactive: 71%
17,O=C(CCNS(=O)(=O)c1ccc2c(c1)CCN2C(=O)C1CC1)N1CCN(c2ccc(F)cc2)CC1,inactive: 117%
18,CCc1ccccc1NC(=O)Cn1c(=O)nc(-c2ccccc2)c2ccccc21,inactive: 90%
19,COc1ccc(CCNC(=O)CCn2c(=O)c3ccccc3n(Cc3ccc(Cl)cc3)c2=O)cc1OC,inactive: 119%
20,COC(=O)c1ccc(-n2c(/C=C\c3cccc(Br)c3)nc3ccccc3c2=O)cc1,inactive: 70%
21,CCc1nc2ccccc2n1CCCCOc1ccccc1C,active: 0%
22,Cc1ccc(S(=O)(=O)C(CNC(=O)C(=O)NCCc2ccccc2)c2ccco2)cc1 (stereo not drawn),inactive: 87%

row,Structure (SMILES),survival
1,CC1=CS(=O)(=O)CC1Sc1ncn[nH]1 (stereo not drawn),inactive: 104%
2,CCCn1c(SCC(O)c2cccc(OC)c2)nc2ccccc21 (stereo not drawn),inactive: 84%
3,O=C(Nc1ccc(N2CCN(CCOc3ccc(Cl)cc3)CC2)c(C(=O)O)c1)c1ccc(F)cc1,active: 20%
4,COC(=O)c1cn(CC(=O)Nc2ccc(F)cc2)c2ccccc12,inactive: 85%
5,O=C(Nc1cccc(Cl)c1)C1=CC(=O)N2CCN=C2S1,inactive: 108%
6,COc1ccc(CNC(=O)c2nnn(CC(=O)Nc3cc(C)cc(C)c3)c2N)cc1,inactive: 76%
7,COc1ccccc1C(=O)NC1(C(F)(F)F)C(=O)Nc2c1c(=O)[nH]c(=O)n2CCc1ccccc1 (stereo not drawn),inactive: 77%
8,Cc1cc(C(=O)NCc2ccccc2C)c2c(C)nn(-c3cccc(F)c3)c2n1,inactive: 95%
9,CCOC(=O)C1=C(CN2CCN(CC)CC2)NC(=O)NC1c1ccc(Cl)cc1 (stereo not drawn),inactive: 97%
10,CCCn1c(=O)sc2cc(NC(=O)c3ccccc3OCC)ccc21,inactive: 93%
11,Cc1cccc(-c2nc(SCC(=O)Nc3cccc(C(F)(F)F)c3)n3[nH]c(=O)cc3n2)c1,active: 0%
12,CCOc1ccc(CNC(=O)C2CCCN(S(=O)(=O)c3ccc4c(c3)CCCC(=O)N4)C2)cc1 (stereo not drawn),inactive: 75%
13,CC(C)CCNC(=O)CSc1c2c(nc3ccc(Cl)cc13)CCCC2,active: 51%
14,Cc1nn(Cc2ccc(Cl)cc2)c(C)c1NC(=O)c1noc2c1CCc1ccccc1-2,active: 31%
15,CCCCn1cc(S(=O)(=O)c2ccc(OC)cc2)c(=O)c2cc(F)c(F)cc21,inactive: 96%
16,CC(C)(C)NC(=O)C1N(C2CC2)C(=O)C2C(C(=O)NCc3ccccc3)C3C=CC21O3 (stereo not drawn),inactive: 64%
17,Clc1cccc(-c2csc(-c3nc(-c4ccc(Br)s4)cs3)n2)c1,inactive: 86%
18,CCN(CC)C(=O)c1sc2c(c1C)c(=O)n(-c1ccccc1)c(=O)n2Cc1cc(=O)n2ccccc2n1,active: 47%
19,CCc1ccc(NC(=O)CSc2nc(-c3ccccc3)c(C#N)c(=O)[nH]2)cc1,inactive: 78%
20,COC(=O)Cn1c(CN2CCN(c3ccc(OC)cc3)CC2)nc2c1c(=O)[nH]c(=O)n2C,inactive: 88%
21,CCOC(=O)c1c(S(=O)(=O)NCC(=O)Nc2cccc(CC)c2)c(C)n(C)c1C,inactive: 84%
22,CCN(CC)C(=O)CN1CCN(c2cccc(Cl)c2)CC1,inactive: 101%

row,Structure (SMILES),survival
1,O=C(CC1N=C2c3ccccc3N=C(SCc3ccc(F)cc3)N2C1=O)NCc1cccs1 (stereo not drawn),inactive: 113%
2,COc1ccc2c(c1)CCc1c(C(=O)Nc3ccccc3C(F)(F)F)noc1-2,inactive: 143%
3,CC(=O)Nc1ccccc1-c1nc2cc(C#N)c(C#N)cc2[nH]c1=O,inactive: 88%
4,CCn1c(SCC(=O)c2ccc([N+](=O)[O-])cc2)nnc1-c1ccc(Cl)cc1,inactive: 70%
5,CCOC(=O)c1scc(-c2ccc(C)cc2)c1S(=O)(=O)Nc1cc(Cl)ccc1OC,active: -5%
6,CC(C)Oc1ccc(C2CC(=O)N(C)C2=O)cc1 (stereo not drawn),inactive: 82%
7,CCc1ccc(NC(=O)Cn2ncc3c4ccccc4n(C)c3c2=O)cc1,inactive: 92%
8,COc1cccc(CNC(=O)Cn2cc3c(n2)-c2c(oc(C(=O)N4CCCC4)c2C)CC3)c1,inactive: 76%
9,CC(=O)OC(COc1ccccc1)Cn1cnc2cc(C)c(C)cc21 (stereo not drawn),inactive: 140%
10,COc1ccc(NC(=O)CC2C(=O)N(c3ccc(C)cc3)C(=O)N2C2CCCCC2)cc1 (stereo not drawn),inactive: 64%
11,O=C(NC1CCCCC1)NC1CCN(S(=O)(=O)c2cccc(Cl)c2)CC1,inactive: 81%
12,O=C(CCSCc1ccccc1Cl)N1CCN(c2cccc(Cl)c2)CC1,inactive: 86%
13,C/C(=N/O)c1ccc2c(c1)OCCO2,inactive: 95%
14,CCCn1c(CCC(=O)Nc2cc(Cl)c(OC)cc2OC)nc2cccnc21,inactive: 87%
15,Cc1ccc(C)c(NC(=O)CSc2ncc3c(n2)-c2ccc(Cl)cc2N(C)S3(=O)=O)c1,inactive: 74%
16,CCn1nc(-c2ccccc2)c(-c2ccccc2)c(C(=O)Nc2nc(C)c(C(=O)N(C)C)s2)c1=O,inactive: 75%
17,CCc1nc2cccnc2n1-c1ccc(CC(=O)Nc2ccc(C)cc2)cc1,inactive: 78%
18,Cn1nccc1C(=O)Nc1cccnc1,inactive: 93%
19,O=C(Cn1c(=O)n(-c2ccccc2Cl)c(=O)c2sc3ccccc3c21)N1CCCC1,inactive: 80%
20,CCOc1ccc(CNC(=O)c2cnc3sc(N(CC)CC)nn3c2=O)cc1OC,inactive: 77%
21,CCOC(=O)c1c(C)[nH]c(CCC(=O)NCCCN2CCN(c3cc(C)ccc3C)CC2)c1C,inactive: 94%
22,COc1ccccc1CNC(=O)CN1C(=O)CSc2ccc(S(=O)(=O)N(C)C)cc21,inactive: 95%
